From PubChem BioAssay AID1346428 (National Center for Advancing Translational Sciences (NCATS), 2018)
“And” between values parts separate entries of the source, which are not always exact repeats. Identical values can stand only once. Hit rate of the full screen: of about 48,000 compounds, about 1,200 (2.5%) were called active. Another 2% or so got no clear call; they are omitted.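 How the source made its calls: active means activation of at least 60% and not above a set upper limit (about 1 call in 100 departs from these limits); inconclusive means activation of 40% to 60%, or above that upper limit; inactive means activation under 40%.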 The list shows a part of the results.

Biological target: Probable G-protein coupled receptor 32 (Homo sapiens) (UniProt O75388)
Assay: qHTS for Agonists of Human Resolvin D1 Receptor DRV1; further: 0% is about no effect
Conditions: CHO-K1 GPR32 beta-arrestin PathHunter luminescence, 90 min; at 76.9 µM; active compounds read high; zero percent set by DMSO-only wells
Outline: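 Luminescent readout of beta-Gal complementation quantifies ligand-induced beta-arrestin association with GPR32 in CHO-K1 cells; 90 min compound incubation at 37 °C, detection 1 h at room temperature.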

Sequence of UniProt O75388 (O75388 whole entry, looked up): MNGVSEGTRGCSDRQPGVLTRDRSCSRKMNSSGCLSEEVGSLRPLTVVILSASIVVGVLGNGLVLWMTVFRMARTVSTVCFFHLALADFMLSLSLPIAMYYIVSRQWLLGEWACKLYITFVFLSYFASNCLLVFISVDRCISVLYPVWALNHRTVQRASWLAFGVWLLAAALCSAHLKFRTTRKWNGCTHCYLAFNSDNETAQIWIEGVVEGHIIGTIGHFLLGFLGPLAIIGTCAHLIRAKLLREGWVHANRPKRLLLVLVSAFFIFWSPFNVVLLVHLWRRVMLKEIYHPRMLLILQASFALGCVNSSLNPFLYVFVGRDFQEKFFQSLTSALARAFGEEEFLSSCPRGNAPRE

Compound | activation
Cc1ccc(OCC(=O)Nc2ccc(OCc3cc(=O)n4ccsc4n3)cc2)cc1C | inactive: 8.27%
CCC(=O)N1CCc2cc(S(=O)(=O)NC(Cc3ccccc3)C(=O)NCc3ccccc3)ccc21 (stereo not drawn) | inactive: -5.65%
COc1ccc(C(=O)c2ccccc2O)c(O)c1 | inactive: -27.3%
Cc1ccc(NC(=O)Cn2c(=O)n(Cc3nc(-c4ccccc4)no3)c(=O)c3ccccc32)c(C)c1 | inactive: -0.825%
CCCCNc1nc2c(S(=O)(=O)c3ccc(Br)cc3)nnn2c2ccsc12 | inactive: -14.3%
CCC(=O)N1CCc2cc(Br)cc(S(=O)(=O)N3CCCC(C(=O)Nc4ccc(C)c(F)c4)C3)c21 (stereo not drawn) | inactive: 10%
Cc1ccc(Nc2c(-c3ccccn3)nc3ccc(Br)cn23)cc1 | inactive: -24.2%
COc1ccccc1NC(=O)c1c(-c2ccc(C)cc2)nnc2ccccc12 | inactive: -25.2%
Cc1ccc2ccc3cc(C(=O)N4CCN(c5ccccc5F)CC4)nc3c2[nH]1 | inactive: -1.02%
CC(C)(C)NCC(O)COc1cccc2c1C[C@H](O)[C@H](O)C2 (stereo partly drawn) | inactive: -19.3%
CC(CCc1ccccc1)NC(=O)CSc1n[nH]c(-c2ccccc2)n1 (stereo not drawn) | inactive: 13.5%
CCCCNC(=O)CCC(=O)NNc1nc2ccccc2c2nc(C)nn12 | inactive: 6.1%
Cc1nn(C(C)C(=O)NCc2ccc(OC(C)C)cc2)c(=O)c2c1sc1ccccc12 (stereo not drawn) | inactive: -16.4%
Cc1ccc(C(=O)N(Cc2ccc(N(C)C)cc2)CC2CCCO2)cc1 (stereo not drawn) | inactive: -19.8%
COc1cc(C2CC(=O)Nc3cc4c(cc32)OCO4)cc(OC)c1O (stereo not drawn) | inactive: 13.5%
Cc1c(C)n(Cc2ccc(Cl)cc2)c2ccc(C(=O)N3CCN(c4ccccc4F)CC3)cc12 | inactive: -26.9%
COc1cccc(NC(=O)Cn2c(=O)oc3cc(S(=O)(=O)N4CCCCC4)ccc32)c1 | active: 116%
Cc1ccc(C(=O)c2oc3ccccc3c2NC(=O)COc2ccc(Cl)c(C)c2)cc1 | inactive: -13.6%
COc1ccc(OC)c(CCNC(=O)c2nc(-c3ccc(Cl)cc3)n3c2CCCCC3)c1 | inactive: -13.9%
COCCc1ccc(OCC(O)CNC(C)C)cc1 (stereo not drawn) | inactive: -25.5% and inactive: -9.16%
CC(C)COc1ccc(C(=O)N2CCCCC2CCN2CCOCC2)cc1 (stereo not drawn) | inactive: -2.34%

Compound | activation
CCc1cccc(CC)c1NC(=O)CN(C)S(=O)(=O)c1ccc2c(c1)n(C)c(=O)c(=O)n2C | inactive: -4.66%
CSc1nn(Cc2ccc(F)cc2)c(N(C(C)=O)C(C)=O)c1S(=O)(=O)c1ccccc1 | inactive: 25.8%
COc1cccc(CNC(=O)C2CCCN(c3nnc(-n4c(C)ccc4C)s3)C2)c1OC (stereo not drawn) | inactive: -5.47%
Cc1ccc(C(=O)CSc2nc(C)cc(C)c2C(=O)Nc2cccc(C)c2)cc1 | inactive: -25.8%
CC(=O)N1CCCc2ccc(NC(=O)c3ccc(OC(C)C)cc3)cc21 | inactive: 1.37%
Cc1ccc2nc(COc3ccccc3NC(=O)Nc3ccc(F)c(Cl)c3)cc(=O)n2c1 | inactive: -9.45%
CCSc1nc(-c2ccc(OC)cc2)nc2c1Cc1c(CO)cnc(C)c1O2 | inactive: 1.06%
Cc1cccc(NC(=O)CSc2cn(CC(=O)N3CCOCC3)c3ccccc23)c1C | inactive: -24.4%
O=C(Nc1ccc(OC(F)(F)F)cc1)c1cc(-c2ccc(Cl)cc2)on1 | inactive: 22.1%
Cc1nc2c3ccccc3nc(NNC(=O)CCC(=O)N3CCN(c4ccc(F)cc4)CC3)n2n1 | inactive: -36.1%
Cc1ccc(-n2c3nc(=O)n(C)c(=O)c-3cc3ccccc32)c(C)c1 | inactive: 3.49%
CCC(=O)N1CCc2cc(Br)cc(S(=O)(=O)N3CCCC(C(=O)NCc4ccc(C)cc4)C3)c21 (stereo not drawn) | inactive: -0.543%
COc1ccc(/C=C/c2nc(C#N)c(N3CCCCC3)o2)cc1OC | inactive: 3.56%
COc1ccc(S(=O)(=O)c2c(Nc3cccc(Cl)c3)sc(C(=O)c3ccccc3)c2N)cc1 | inactive: -48.8%
COc1cccc2cc(-c3nc4sc5c(c4c(=O)[nH]3)CCC(C(C)(C)C)C5)c(=O)oc12 (stereo not drawn) | inactive: 6.66%
CCCCN(Cc1cc2cc(C)ccc2[nH]c1=O)C(=O)c1cccc(Cl)c1 | inactive: -3.33%
Cc1cc2c(cc1S(=O)(=O)NCc1ccc(F)cc1)OCCN2C | inactive: -26.1%
Cc1ccc2c(=O)cc(C(=O)Nc3c(C)cccc3C)oc2c1 | inactive: 7.27%
CCc1ccc(NC(=O)Cn2ncn3c(cc4ccccc43)c2=O)cc1 | inactive: -22.9%
COc1ccc(N2CCN(CCCNC(=O)c3c(C)nn(-c4ccc(F)cc4)c3-n3cccc3)CC2)cc1 | active: 63.4%
CCOC(=O)N1CCc2c(sc3c2c(=O)n(-c2ccc(CC)cc2)c(=O)n3Cc2ccc(F)cc2Cl)C1 | inactive: -17.9%

Compound | activation
COc1ccccc1N1CCN(C(=O)c2cc3c(=O)n(Cc4cccs4)ccc3nc2C)CC1 | inactive: -19.5%
CCOc1ccc2nc(N3CCCC(C(=O)NCCc4ccc(Cl)cc4)C3)sc2c1 (stereo not drawn) | inactive: -14.8%
CCOC(=O)c1c(NC(=O)Cc2coc3ccc(CC)cc23)sc2c1CCC2 | inactive: -9.82%
CCOc1ccc(NC(=O)Cn2nc(Cc3cccnc3)c3ccccc3c2=O)cc1 | inactive: -1.92%
COc1ccccc1NC(=O)N1CCN(c2ccc3nnc(-c4ccc(F)cc4)n3n2)CC1 | inactive: 5.47%
Cc1cccc(N2CCN(c3ccc4cc(S(=O)(=O)N5CCC(C)CC5)ccc4n3)CC2)c1C | inactive: -3.01%
CC(C)C(=O)Nc1nnc(S(=O)(=O)N2CCc3ccccc32)s1 | inactive: -5.97%
CCOC(=O)c1c(C)oc2ncnc(Nc3cccc(C(F)(F)F)c3)c12 | inactive: 3.19%
CCc1ccc(NC(=O)CC(NCc2cccnc2)C(=O)O)cc1 (stereo not drawn) | inactive: -1.08%
O=c1oc2ccccc2cc1-c1cn2cc(Cc3ccc(F)cc3)sc2n1 | inactive: -7.17%
Cc1ccc(OCC(=O)Nc2ccc(OCc3cc(=O)n4c(C)csc4n3)cc2)cc1C | inactive: -16.1%
Cc1ccc(Cn2ccnc2SCC(=O)NCc2ccccc2)cc1 | inactive: -7.91%
CCOc1ccccc1Nc1sc(C(=O)c2ccccc2)c(N)c1C(=O)Nc1ccc(F)cc1 | inactive: -50.9%
COc1ccc(CNC(=O)C(=O)NCC(c2ccco2)S(=O)(=O)c2ccc(Cl)cc2)cc1 (stereo not drawn) | inactive: -15.5%
Cn1c(=O)c2c(nc(SCC(=O)Nc3ccccc3F)n2Cc2ccccc2F)n(C)c1=O | inactive: 3.98%
CCOC(=O)c1cccc(NC(=O)Cn2ncc3c(=O)oc4ccccc4c32)c1 | inactive: 4.2%
Cc1ccc(NC(=O)c2ccc3c(c2)NC(=O)c2ccccc2S3)c(Cl)c1 | inactive: -11.5%
Cc1nn(CC(=O)NC2CC2)c(=O)c2cc3cc(F)ccc3n12 | inactive: 1.89%
CSc1ccc(CCNC(=O)Cn2nc(C)n3c(cc4sccc43)c2=O)cc1 | inactive: -12.5%
Cc1nc(-c2ccc(Cl)cc2)sc1CCNC(=O)C(=O)Nc1ccc2c(c1)OCO2 | inactive: 13.9%
COc1cccc(/C=C/c2nc(C#N)c(N3CCN(C)CC3)o2)c1 | inactive: -0.806%

Compound | activation
COc1cc(NC(=O)C2CCN(S(=O)(=O)c3c(C)noc3/C=C/c3ccccc3F)CC2)cc(OC)c1OC | inactive: -19.8%
COc1cc(OC)c(NC(=O)CCc2c(C)nc3c4c(C)cc(C)nc4nn3c2C)cc1Cl | inactive: -14.1%
CCCCCN1C(C(=O)c2ccccc2)=C(OC(=O)CC)c2ccccc2S1(=O)=O | inactive: -48%
CC(NC(=O)c1ccc2c(c1)sc1nc(-c3ccc(F)cc3)cn12)C12CC3CC(CC(C3)C1)C2 (stereo not drawn) | inactive: -10.5%
FC(F)(F)c1cccc(Nc2c3c(nc4ccc(Cl)cc24)CCC3)c1 | inactive: 4.28%
Cc1ccc(CCNC(=O)c2ccc(Nc3nc4ccccc4n4nnnc34)cc2)cc1 | inactive: 7.16%
Cc1cccc(NC(=O)c2cc3c(=O)n(Cc4cccnc4)ccc3nc2C)c1 | inactive: -7.31%
N#Cc1cc2c(=O)n3ccccc3nc2n(-c2nnc(SCc3ccccc3Cl)s2)c1=O | inactive: -8.69%
CCN(CCCNC(=O)Cn1ncc2c([nH]c3ccc(C)cc32)c1=O)c1ccccc1 | inactive: -6.26%
CCC(Sc1nc2n[nH]c(C)c2c(=N)n1-c1ccccc1Cl)C(=O)N(CC)CC (stereo not drawn) | inactive: -18.3%
CC1Cn2c(C(=O)NCc3ccccc3Cl)cc3cccc(c32)S1 (stereo not drawn) | inactive: -17.8%
COc1ccc(NC(=O)CCn2cnc3onc(-c4ccc(F)cc4)c3c2=O)cc1OC | inactive: 35.2%
O=C(NCC(c1cccs1)S(=O)(=O)c1cccs1)c1c(F)cccc1F (stereo not drawn) | inactive: -0.686%
CCCOc1ccc(C(=O)N(Cc2ccco2)Cc2ccco2)cc1 | inactive: -24.8%
CC(C)c1nn2c(=O)cc(COC(=O)c3ccc(NC(=O)c4cccs4)cc3)nc2s1 | inactive: -11.4%
CCOC(=O)Cn1c(=O)n(CC2CCCO2)c2nc(-c3cc(OC)ccc3OC)nc(C(N)=O)c21 (stereo not drawn) | inactive: -15.7%
Cc1ccc(S(=O)(=O)NCCc2nnc3ccc(SCC(=O)Nc4ccc(F)cc4F)nn23)cc1 | inactive: -8.66%
COc1ccc(CCNC(=O)CCc2c(C)nc3cc(-c4cccc(F)c4)nn3c2C)cc1OC | inactive: -5.61%
COc1ccnc(CS(=O)c2nc3ccc(OC(F)F)cc3[nH]2)c1OC (stereo not drawn) | inactive: 34.6%
Cc1ccccc1OCC(=O)Nc1ccccc1OCc1cc(=O)n2ccccc2n1 | inactive: -10.1%
